Measurements taken from PubChem BioAssay AID686978 (National Center for Advancing Translational Sciences (NCATS), 2013).
Screen size: about 420,000 compounds; about 64,000 (15%) were called active. The shares of active, inactive and inconclusive entries below differ from those in the screen. Calls follow the shape of the dose curve; as a rule, active = well fitted inhibition curve with a large enough effect; inconclusive = small, poorly fitted or top-dose-only effect; inactive = flat fitted curve, though single readings scatter. Potencies of inconclusive entries are left out as doubtful fits.

experiment: qHTS for Inhibitors of human tyrosyl-DNA phosphodiesterase 1 (TDP1): qHTS in cells in absence of CPT; details: DT40 Tdp1-/- hTDP1 cells, no CPT, ATP luminescence, 48 h; series mostly up to 46.2 µM; also: nearly all actives have a fitted effect of over 55% in size
How it was run: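 Seeded 400 DT40-hTDP1 cells/well (vehicle DMSO, no 20 nM CPT); pinned compounds; ≥48 hr at 37 °C; CellTiter-Glo luminescence as viability measure.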
Potency is read from the fitted curve at half-maximal effect; tags tell the direction and shape of the fitted curve.

| Compound | Potency |
| --- | --- |
| COc1ccccc1N1CCN(C(=O)c2oc3ccc(F)cc3c2C)CC1 | active: 16.4 µM |
| O=[N+]([O-])c1ccc2ncnc(N3CCN(Cc4ccc5c(c4)OCO5)CC3)c2c1 | active: 9.2 µM |
| COCc1cc(C)nc2sc(C(=O)Nc3ccccc3F)c(N)c12 | inconclusive [inhibitor, single point] |
| Cc1ccc(-c2c3c(=O)n(C)c(=O)n(C)c3c3c(C(F)(F)F)nc4ccccc4n23)cc1 | inconclusive [inhibitor, single point] |
| COc1ccc(NCc2cc3ccccc3[nH]c2=O)cc1 | inconclusive [inhibitor, partial curve] |
| COc1cc(CNC(=O)c2cc3n(n2)CCCN(Cc2ccc(C)cc2)C3=O)cc(OC)c1OC | inconclusive [inhibitor, single point] |
| CCCN(Cc1nnc(-c2ccccc2Cl)o1)C(=O)c1oc2ccccc2c1C | inconclusive [inhibitor, single point] |
| COCCNCC(=O)N1c2ccccc2Sc2ccccc21 | inactive |
| O=C(Nc1cccc(F)c1)N1CCN(C(=O)c2ccco2)CC1 | inactive |
| Oc1ccc(/C=N/Nc2nccnc2Cl)c(O)c1 | active: 3.26 µM |
| CCOC(=O)c1[nH]c(C)c(CCC(=O)Nc2ccc(N(CC)CC)cc2C)c1C | active: 20.6 µM |
| CC1=C(C(=O)N(C)C)CC(CC(=O)NCc2cccs2)C(=O)N1Cc1ccc(C(C)(C)C)cc1 (centres undefined) | inconclusive [inhibitor, single point] |
| CCOc1ccc(OCC)c(S(=O)(=O)NC2CC(C)(C)NC(C)(C)C2)c1 | inactive |
| COCC(=O)N1CCCC(C(=O)c2ccc(-c3ccccc3)cc2)C1 (centres undefined) | inconclusive [inhibitor, partial curve, poor fit] |
| Cc1ccc(C)c(NC(=S)NC(C)C(c2cccs2)N2CCOCC2)c1 (centres undefined) | inconclusive [inhibitor, single point] |
| CCOC(=O)C1=C(C)Nc2ncnn2C1/C=C/c1ccccc1 (centres undefined) | inconclusive [inhibitor, single point] |
| CCCCn1c2c(c(=N)c3ccccc31)CCC2 | inconclusive [inhibitor, single point] |
| O=C(Cn1cc([N+](=O)[O-])cn1)Nc1ccc(Cn2cc(Br)cn2)cc1 | inconclusive [inhibitor, single point] |
| Cc1sc(NC(=O)Cn2cnnn2)nc1-c1ccc(Cl)cc1 | inconclusive [inhibitor, partial curve] |
